Data as given in the supplement of paper PMC3334620.
The full ranking holds about 33,000 sequences; the median of “E-score (-0.5 to 0.5)” is about -0.013, and the highest 2% start at about 0.3. The list shows a part of the results.

What follows are sequences tested against T1, Msn1 (UniProt P22148) (assay: PBM E-score (8-mer binding enrichment) (E-score (-0.5 to 0.5)); higher = stronger / more preferred TF binding; most listed sequences are background and not binding sites). Settings: protein concentration: 200 nM; construct: GST-full length.
T1 sequence: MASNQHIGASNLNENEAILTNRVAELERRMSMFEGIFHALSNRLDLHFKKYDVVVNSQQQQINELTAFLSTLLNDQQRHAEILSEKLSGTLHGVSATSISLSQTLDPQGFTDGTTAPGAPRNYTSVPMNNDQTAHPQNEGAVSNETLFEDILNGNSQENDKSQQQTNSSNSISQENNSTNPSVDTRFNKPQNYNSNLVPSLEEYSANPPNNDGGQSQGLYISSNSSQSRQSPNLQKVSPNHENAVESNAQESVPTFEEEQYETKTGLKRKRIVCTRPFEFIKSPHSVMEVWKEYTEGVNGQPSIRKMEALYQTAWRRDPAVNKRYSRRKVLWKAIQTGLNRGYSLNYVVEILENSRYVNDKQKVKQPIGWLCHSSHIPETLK
Method in brief: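 GST-tagged yeast TFs (full-length or DNA-binding domain) were made by PURExpress in vitro transcription/translation and applied at about 100-200 nM to universal all-10-mer Agilent arrays. The arrays were made double-stranded by primer extension, on fresh or once-stripped slides. Bound protein was detected with fluorescent anti-GST, and scans were normalised with masliner. Each ungapped eight-base word, pooled with its reverse complement, received an E-score (modified Wilcoxon-Mann-Whitney statistic) from the Universal PBM Analysis Suite.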

Row | Sequence | PBM E-score
1 | GGACGCCA | -0.112
2 | CATAGGGG | -0.223
3 | GCCGACCA | 0.0498
4 | AGCGCCTG | -0.176
5 | GACCATTA | 0.0825
6 | ACTTACAC | 0.0582
7 | CAATGTCG | 0.323
8 | AATGAGTC | -0.086
9 | CTTAGCGA | 0.0418
10 | GCGTTGCC | -0.157
11 | AAGAAGCT | -0.0326
12 | ATGCTTAG | -0.0632
13 | AACAAGCG | 0.187
14 | TACCGAAA | 0.0647
15 | CCTTACAC | -0.0848
16 | TACACAGA | 0.0519
17 | AAGGCACG | -0.0969
18 | AAGTAAGA | -0.0138
19 | GCGCTACA | -0.0869
20 | AAATTCCC | -0.0722
21 | AATGGCGT | -0.0206
22 | GGGGGATA | -0.34

Row | Sequence | PBM E-score
23 | GCTAACGA | -0.026
24 | CATAAATG | 0.125
25 | AACTTACA | 0.0502
26 | CATCTTTC | 0.104
27 | ACACCCAT | -0.0925
28 | GACAGGAC | 0.17
29 | ACTCATCG | -0.0482
30 | GGCCAGGA | -0.0726
31 | CGTGTCCC | 0.437
32 | GGCCTAGA | -0.231
33 | AGGTAGTC | -0.221
34 | AGCCAGAC | -0.072
35 | ACTCTGAC | -0.0936
36 | CGTAAAAC | -0.157
37 | GTAGCCTA | -0.0816
38 | CGACATTA | 0.386
39 | GCATTGAA | -0.0579
40 | GTAGCGAC | -0.0946
41 | GTGAAACA | 0.0944
42 | CCCCCAGG | -0.425
43 | GGTCCATA | -0.0838
44 | ATCCTGGA | 0.0779

Row | Sequence | PBM E-score
45 | ATGATTTC | 0.239
46 | GTTAATGA | 0.169
47 | CACGCAGG | -0.16
48 | AAGACATC | 0.281
49 | CGACAGCC | -0.118
50 | CCATAGCC | -0.171
51 | CAGCCCCG | -0.05
52 | CCGGCCGA | 0.106
53 | TAGCGTCA | -0.0365
54 | ATCGGCAT | 0.171
55 | CACTCTTC | -0.0808
56 | CAGTTGCA | -0.0789
57 | CATGTTAC | 0.136
58 | GTAGCAAA | 0.263
59 | ACCCTCAC | -0.0928
60 | AAACCAGG | 0.11
61 | ATAGCTGA | -0.0951
62 | GATTTCCA | -0.0716
63 | AAGCTAGA | 0.0495
64 | CGCACCTC | -0.195
65 | GGAAGATA | 0.0803
66 | GAGTGGAC | 0.0922

Row | Sequence | PBM E-score
67 | GCGATGAC | 0.0728
68 | CCGTGATA | 0.0429
69 | AAAATGTG | 0.0654
70 | CACCCCAG | -0.245
71 | AATCCACA | -0.00182
72 | CCGTCAAC | -0.203
73 | AGGTTGGG | -0.146
74 | TCACCCCA | 0.108
75 | AGTATGAC | 0.192
76 | AATATCCA | 0.0869
77 | GTCGTGTA | 0.218
78 | AACCCACG | -0.0758
79 | ATATAGAT | 0.0925
80 | AAGGAGCG | -0.257
81 | GTCTGGAA | 0.0274
82 | GACGTTAC | 0.0854
83 | AAGATGGC | -0.1
84 | AATTCACC | 0.015
85 | GATATCCC | 0.027
86 | CAATGTGC | -0.121
